In PMC12820563:
The other results are listed elsewhere or left out. The list includes weakly bound sequences.

Molecular target: T1, MBP-FoxP3dN (UniProt Q99JB6)
T1 sequence: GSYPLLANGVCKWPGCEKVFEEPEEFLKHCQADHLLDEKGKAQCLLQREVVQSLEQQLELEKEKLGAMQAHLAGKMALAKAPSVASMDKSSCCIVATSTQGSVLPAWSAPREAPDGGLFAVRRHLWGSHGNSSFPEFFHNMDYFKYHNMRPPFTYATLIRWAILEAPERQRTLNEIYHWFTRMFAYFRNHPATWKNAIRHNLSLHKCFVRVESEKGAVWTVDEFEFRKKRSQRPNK
Assay: PD-seq (MBP pull-down with sequencing)
Settings: 20 mM Tris-HCl pH 7.5, 100 mM NaCl, 1.5 mM MgCl2, 0.4 uM protein, 0.1 uM dsDNA library, 30 min, room temperature, amylose pull-down; high values mean tight binding; double strand, one strand shown

| Sequence | binding signal (RPM ratio (pull-down/input)) |
| --- | --- |
| GATGATTGTTCTCCCAGCTGATGAATTTCGCACTTCGAGTAAACAAATTTTCCTAATCTTTCTGTTCAAGCGCCATCTAC | 1.18 |
| GATGATTGTTCTCCCAGCTGATGAATTCAGCTGTTCGAGTAAACAAATTTTCCTAATCTTTCTGTTCAAGCGCCATCTAC | 1.19 |
| GATGATTGTTCTCCCAGCTGATGAATTCTCACGTTCGAGTAAACAAATTTTCCTAATCTTTCTGTTCAAGCGCCATCTAC | 0.305 |
| GATGATTGTTCTCCCAGCTGATGAATTGCTGACATCGAGTAAACAAATTTTCCTAATCTTTCTGTTCAAGCGCCATCTAC | 1.09 |
| GATGATTGTTCTCCCAGCTGATGAATTATAGCACTCGAGTAAACAAATTTTCCTAATCTTTCTGTTCAAGCGCCATCTAC | 0.694 |
| GATGATTGTTCTCCCAGCTGATGAATTTGGTATTTCGAGTAAACAAATTTTCCTAATCTTTCTGTTCAAGCGCCATCTAC | 3.3 |
| GATGATTGTTCTCCCAGCTGATGAATTCCCCTAGTCGAGTAAACAAATTTTCCTAATCTTTCTGTTCAAGCGCCATCTAC | 0.184 |
| GATGATTGTTCTCCCAGCTGATGAATTCAACACCTCGAGTAAACAAATTTTCCTAATCTTTCTGTTCAAGCGCCATCTAC | 0.553 |
| GATGATTGTTCTCCCAGCTGATGAATTGGTTGTGTCGAGTAAACAAATTTTCCTAATCTTTCTGTTCAAGCGCCATCTAC | 5.42 |
| GATGATTGTTCTCCCAGCTGATGAATTTCGATCTTCGAGTAAACAAATTTTCCTAATCTTTCTGTTCAAGCGCCATCTAC | 0.34 |
| GATGATTGTTCTCCCAGCTGATGAATTACGCACTTCGAGTAAACAAATTTTCCTAATCTTTCTGTTCAAGCGCCATCTAC | 1.17 |
| GATGATTGTTCTCCCAGCTGATGAATTCCCCACATCGAGTAAACAAATTTTCCTAATCTTTCTGTTCAAGCGCCATCTAC | 0.323 |
| GATGATTGTTCTCCCAGCTGATGAATTATACGAATCGAGTAAACAAATTTTCCTAATCTTTCTGTTCAAGCGCCATCTAC | 0.333 |
| GATGATTGTTCTCCCAGCTGATGAATTTGCAGTGTCGAGTAAACAAATTTTCCTAATCTTTCTGTTCAAGCGCCATCTAC | 1.78 |
| GATGATTGTTCTCCCAGCTGATGAATTAGTCTTCTCGAGTAAACAAATTTTCCTAATCTTTCTGTTCAAGCGCCATCTAC | 0.802 |
| GATGATTGTTCTCCCAGCTGATGAATTCGAACTGTCGAGTAAACAAATTTTCCTAATCTTTCTGTTCAAGCGCCATCTAC | 0.317 |
| GATGATTGTTCTCCCAGCTGATGAATTCAACGGTTCGAGTAAACAAATTTTCCTAATCTTTCTGTTCAAGCGCCATCTAC | 0.307 |
| GATGATTGTTCTCCCAGCTGATGAATTAAATGAGTCGAGTAAACAAATTTTCCTAATCTTTCTGTTCAAGCGCCATCTAC | 0.419 |
| GATGATTGTTCTCCCAGCTGATGAATTATCGGGTTCGAGTAAACAAATTTTCCTAATCTTTCTGTTCAAGCGCCATCTAC | 0.322 |
| GATGATTGTTCTCCCAGCTGATGAATTCCCGTAATCGAGTAAACAAATTTTCCTAATCTTTCTGTTCAAGCGCCATCTAC | 0.495 |
| GATGATTGTTCTCCCAGCTGATGAATTGTCTACCTCGAGTAAACAAATTTTCCTAATCTTTCTGTTCAAGCGCCATCTAC | 0.773 |

| Sequence | binding signal (RPM ratio (pull-down/input)) |
| --- | --- |
| GATGATTGTTCTCCCAGCTGATGAATTACGACACTCGAGTAAACAAATTTTCCTAATCTTTCTGTTCAAGCGCCATCTAC | 1.76 |
| GATGATTGTTCTCCCAGCTGATGAATTCACGATCTCGAGTAAACAAATTTTCCTAATCTTTCTGTTCAAGCGCCATCTAC | 0.275 |
| GATGATTGTTCTCCCAGCTGATGAATTGCTTCGTTCGAGTAAACAAATTTTCCTAATCTTTCTGTTCAAGCGCCATCTAC | 0.539 |
| GATGATTGTTCTCCCAGCTGATGAATTTGGCTGCTCGAGTAAACAAATTTTCCTAATCTTTCTGTTCAAGCGCCATCTAC | 0.601 |
| GATGATTGTTCTCCCAGCTGATGAATTCTTGTTCTCGAGTAAACAAATTTTCCTAATCTTTCTGTTCAAGCGCCATCTAC | 0.508 |
| GATGATTGTTCTCCCAGCTGATGAATTGAAAGAATCGAGTAAACAAATTTTCCTAATCTTTCTGTTCAAGCGCCATCTAC | 0.183 |
| GATGATTGTTCTCCCAGCTGATGAATTTCACACATCGAGTAAACAAATTTTCCTAATCTTTCTGTTCAAGCGCCATCTAC | 0.41 |
| GATGATTGTTCTCCCAGCTGATGAATTACGCCAATCGAGTAAACAAATTTTCCTAATCTTTCTGTTCAAGCGCCATCTAC | 0.835 |
| GATGATTGTTCTCCCAGCTGATGAATTAGAAATCTCGAGTAAACAAATTTTCCTAATCTTTCTGTTCAAGCGCCATCTAC | 0.275 |
| GATGATTGTTCTCCCAGCTGATGAATTATGGGAATCGAGTAAACAAATTTTCCTAATCTTTCTGTTCAAGCGCCATCTAC | 0.287 |
| GATGATTGTTCTCCCAGCTGATGAATTGCCTGAGTCGAGTAAACAAATTTTCCTAATCTTTCTGTTCAAGCGCCATCTAC | 0.388 |
| GATGATTGTTCTCCCAGCTGATGAATTAGAAAGCTCGAGTAAACAAATTTTCCTAATCTTTCTGTTCAAGCGCCATCTAC | 0.264 |
| GATGATTGTTCTCCCAGCTGATGAATTCTTATATTCGAGTAAACAAATTTTCCTAATCTTTCTGTTCAAGCGCCATCTAC | 0.409 |
| GATGATTGTTCTCCCAGCTGATGAATTGATTGAATCGAGTAAACAAATTTTCCTAATCTTTCTGTTCAAGCGCCATCTAC | 0.339 |
| GATGATTGTTCTCCCAGCTGATGAATTGCGGTATTCGAGTAAACAAATTTTCCTAATCTTTCTGTTCAAGCGCCATCTAC | 1.67 |
| GATGATTGTTCTCCCAGCTGATGAATTCATGCGATCGAGTAAACAAATTTTCCTAATCTTTCTGTTCAAGCGCCATCTAC | 0.775 |
| GATGATTGTTCTCCCAGCTGATGAATTCAGCGCTTCGAGTAAACAAATTTTCCTAATCTTTCTGTTCAAGCGCCATCTAC | 0.663 |
| GATGATTGTTCTCCCAGCTGATGAATTGAACCCTTCGAGTAAACAAATTTTCCTAATCTTTCTGTTCAAGCGCCATCTAC | 0.284 |
| GATGATTGTTCTCCCAGCTGATGAATTTGTGATTTCGAGTAAACAAATTTTCCTAATCTTTCTGTTCAAGCGCCATCTAC | 5.37 |
| GATGATTGTTCTCCCAGCTGATGAATTGCTGTCTTCGAGTAAACAAATTTTCCTAATCTTTCTGTTCAAGCGCCATCTAC | 1.11 |
| GATGATTGTTCTCCCAGCTGATGAATTAGGACGGTCGAGTAAACAAATTTTCCTAATCTTTCTGTTCAAGCGCCATCTAC | 0.222 |

| Sequence | binding signal (RPM ratio (pull-down/input)) |
| --- | --- |
| GATGATTGTTCTCCCAGCTGATGAATTCCCCCACTCGAGTAAACAAATTTTCCTAATCTTTCTGTTCAAGCGCCATCTAC | 0.253 |
| GATGATTGTTCTCCCAGCTGATGAATTCAACAGGTCGAGTAAACAAATTTTCCTAATCTTTCTGTTCAAGCGCCATCTAC | 0.252 |
| GATGATTGTTCTCCCAGCTGATGAATTAATTGATTCGAGTAAACAAATTTTCCTAATCTTTCTGTTCAAGCGCCATCTAC | 2.02 |
| GATGATTGTTCTCCCAGCTGATGAATTCCATTCATCGAGTAAACAAATTTTCCTAATCTTTCTGTTCAAGCGCCATCTAC | 0.496 |
| GATGATTGTTCTCCCAGCTGATGAATTCTCGGTGTCGAGTAAACAAATTTTCCTAATCTTTCTGTTCAAGCGCCATCTAC | 0.364 |
| GATGATTGTTCTCCCAGCTGATGAATTTCTGAACTCGAGTAAACAAATTTTCCTAATCTTTCTGTTCAAGCGCCATCTAC | 0.221 |
| GATGATTGTTCTCCCAGCTGATGAATTTATAGCGTCGAGTAAACAAATTTTCCTAATCTTTCTGTTCAAGCGCCATCTAC | 1.26 |
| GATGATTGTTCTCCCAGCTGATGAATTAGAAATATCGAGTAAACAAATTTTCCTAATCTTTCTGTTCAAGCGCCATCTAC | 0.341 |
| GATGATTGTTCTCCCAGCTGATGAATTACACCAATCGAGTAAACAAATTTTCCTAATCTTTCTGTTCAAGCGCCATCTAC | 0.479 |
| GATGATTGTTCTCCCAGCTGATGAATTCATTGTATCGAGTAAACAAATTTTCCTAATCTTTCTGTTCAAGCGCCATCTAC | 1.67 |
| GATGATTGTTCTCCCAGCTGATGAATTCGGAACTTCGAGTAAACAAATTTTCCTAATCTTTCTGTTCAAGCGCCATCTAC | 0.23 |
| GATGATTGTTCTCCCAGCTGATGAATTTATTCTATCGAGTAAACAAATTTTCCTAATCTTTCTGTTCAAGCGCCATCTAC | 0.549 |
| GATGATTGTTCTCCCAGCTGATGAATTGGTTCCCTCGAGTAAACAAATTTTCCTAATCTTTCTGTTCAAGCGCCATCTAC | 0.362 |
| GATGATTGTTCTCCCAGCTGATGAATTCTTAAGGTCGAGTAAACAAATTTTCCTAATCTTTCTGTTCAAGCGCCATCTAC | 0.156 |
| GATGATTGTTCTCCCAGCTGATGAATTTACGAGCTCGAGTAAACAAATTTTCCTAATCTTTCTGTTCAAGCGCCATCTAC | 0.335 |
| GATGATTGTTCTCCCAGCTGATGAATTTCGTGGATCGAGTAAACAAATTTTCCTAATCTTTCTGTTCAAGCGCCATCTAC | 0.41 |
| GATGATTGTTCTCCCAGCTGATGAATTAGGCCCTTCGAGTAAACAAATTTTCCTAATCTTTCTGTTCAAGCGCCATCTAC | 0.879 |
| GATGATTGTTCTCCCAGCTGATGAATTCGTTCTTTCGAGTAAACAAATTTTCCTAATCTTTCTGTTCAAGCGCCATCTAC | 0.263 |
| GATGATTGTTCTCCCAGCTGATGAATTTTTGCGTTCGAGTAAACAAATTTTCCTAATCTTTCTGTTCAAGCGCCATCTAC | 2.04 |
| GATGATTGTTCTCCCAGCTGATGAATTATAAGCATCGAGTAAACAAATTTTCCTAATCTTTCTGTTCAAGCGCCATCTAC | 1.08 |
| GATGATTGTTCTCCCAGCTGATGAATTTGTATTATCGAGTAAACAAATTTTCCTAATCTTTCTGTTCAAGCGCCATCTAC | 5.3 |
